The supplement of paper PMC10126150
Sequences with one replicate were seen in a single cluster, so their values are uncertain.

Test system: ATP
Assay: switch fluorescence ratio, 500 uM ATP over buffer (Cy3 cluster intensity, sum of 5 cycles each) (fold (ratio)); higher = stronger signal-on switching upon ATP binding; sequences stand for … in TCGTCGGCAGCGTCAGATGTGTATAAGAGACAGTTTTTTTTTTTTTTTTTTTTTTTTT…TC
Conditions: aptamer strand: ATP DNA aptamer (quencher-CACCTGGGGGAGTATTGCGGAGGAAGG + anchor), 100 nM annealed; ATP concentration: 500 uM; one replicate
Method in brief: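 Values give the fluorescence ratio for each switch-domain sequence, averaged from per-cluster ratios of summed target-cycle to summed buffer-cycle Cy3 intensity. The Cy3-labelled switching-strand clusters sat on a modified Illumina MiSeq flow-cell, were annealed to 100 nM quencher-labelled ATP aptamer, and were imaged in selection buffer, then after 15 min with 500 uM ATP at 22 °C. Five cycles ran with NaOH stripping and re-annealing between them, and clusters outside 100-1000 RFU were excluded.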
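Also: ATP exposure 15 min at 22 °C before imaging.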

Sequence	switch fluorescence ratio
TTGACAACTA	1.18
CGTGTGTCGA	1.03
CGGATCCG	0.973
CCCTGCTCGG	1.06
GTCACAATTA	0.995
ATCGGGTGAA	1.01
TTTAGGAGCA	1.03
GTTATCAAAT	0.993
CGTAACTTAT	1.01
GTGAGAACAT	1.01
CATCCGCGCT	2.6
ACTCCTAATT	1.09
CATGTTAACA	0.974
AGAAGGAGGA	0.988
ATTGGACCCA	1.04
TTAATTATCC	0.989
ACGAGAAAGG	1.01
TTCAGAGACG	1.02
ACTCGTTTGG	1.06
TAGTATTG	1.04
GCCTCAGAGC	1.04
ATACAGTACC	1.5
GCACCGGCTG	1.01
TTTCGCAGCT	1.54
TGCCGCGTCG	1.05
GGCTTCTTTG	0.936

Sequence	switch fluorescence ratio
GGAAACCCTA	1.03
TGGACTTAGA	0.966
ACTTGGGGAT	1.01
TGATGTACGA	0.983
AGATATCGAC	1.06
CGGTTTCGGA	0.998
CTTAGGTAA	1.01
TTTGCCCCAC	1.43
ACATAACGTT	1.38
TGGTGTGAGC	1.01
GATTCACCGC	1.28
AGTCTAGACC	1.01
CGCGGATTCG	1.04
CATGAGGTCC	1.12
GAGAAACGAT	0.974
TTTTGCCGTG	0.964
CGTACGATAC	2.21
ATCGGAGATA	0.972
ATCGCATATT	1.12
TCTCGTAATA	3.15
TTTTAGAGTC	1.02
CCGTGGTACG	1.27
ATTGTGTAAC	1.03
CAGGGATGGC	0.968
CTCGCCGGTT	1
CTGAACCTTA	1.24

Sequence	switch fluorescence ratio
AGTTTTATAG	1.02
AGTCCTGTGG	1
CCAACAACGG	1.05
GGGTAGCATT	1.02
ATGATTTGT	1.05
GTGTGCGCA	1.01
ATCCTCACGA	1.06
TGATAGTTTA	0.967
GTAAAAACGC	1.07
TAGTGTAAAG	0.982
GAGCGCTTCA	1
GCGTTACCGG	0.994
ATTTTAGTCC	0.966
TGGATGTTGG	0.995
GGCGTTAAGT	1.01
GATTGCCCGA	1
ACATTAGTCT	1.03
ATTATGGCC	1
GTCTATGCCT	1.03
GTTTATGT	1
ACCGGGTTCC	1.08
ATATATGTGT	0.948
TGGATGCACA	0.95
CTCGGCCCCG	0.963
CTCAAGGCTC	1.19
AGTGTGGGCC	1.07

Sequence	switch fluorescence ratio
TTAAAGTAAC	1.06
TTCGGGGCGA	1.01
AAAGTTAGTG	1.01
TGTCGAGCAG	1
TTCGTGTTG	0.998
CCGAAAATTA	1.57
GTCGGTTGTA	0.972
CCGGTGGGTT	0.991
CGACGTTCGA	1.04
TTCTTCTGGT	0.995
GGCCTGCGCG	0.996
GTCCTTTAGT	0.963
GGAATTATTA	1
CTTGGAATGC	3.11
TTTCACGGT	1.04
TAGTATTGTT	0.977
AAAGCCCACG	1.08
AATTATACTT	1.03
ATTATCTCGG	1.01
AGTATTATGG	0.956
GAGGGAAAGT	1
GCCTACCTG	0.985
TGGCAAAGCG	0.977
GCTCTTGTAA	1.04
GAATGGAGGG	0.996
CCCAGGAGAT	1.44

Sequence	switch fluorescence ratio
GCATATCGAA	1.04
ACCAGGGCA	1.01
CGCCAAGGGC	0.987
TATTGCAAAC	1.04
GCATGTATTT	0.952
GTTGTAAGGC	1.05
GATCTTCTTT	0.984
ATAGCTGAT	1.01
AATTTTACAC	1.03
TTGTCAGTA	1
ACACTCGAG	1
TATAATTGTG	1
AGTGTTCTT	0.96
TTTATGGATG	0.96
CTGAAGAAAG	1.04
AATATATCGT	1.03
CCTTGTCTTT	0.982
CTAGCATTCA	1.01
GCACTACTCA	2.6
GGGACTGGAG	0.97
CATAAACACA	1.01
TGATTCGATT	1.03
GGCTACTATG	1.05
CTGATAGTGG	0.961
GTTGGCTGCT	1.06
TGGGAGAAA	1.03

Sequence	switch fluorescence ratio
ACAGGTAAGT	0.986
TGTATTTGTC	1.02
TGCGAAAACT	1.04
ATTCTCACTT	0.971
TTGCCATCGA	0.988
ATTTAGCATA	1.36
GAAGTTGATG	0.956
GCAGGATTCG	0.954
TAATTTGCA	1.02
GGTGTGGTGT	1.02
TGCGTCGGCA	1.05
TTGAGTGCCT	1.07
ATAAGGGTAC	1.03
CTTATATGCT	0.99
TGGGGACGAG	0.951
CATTTAGAGC	1.03
ATCATCCTT	1.04
GACATTTAGA	1.01
AACCTATACG	1.09
CACAGGGCTT	0.986
ACTCTTCGC	1.08
GAAGAAACG	0.98
TACCATCATG	0.985
ACGCCCTCTT	1.1
GAATTGAGGT	0.976
AAGTGAGAAG	1.01

Sequence	switch fluorescence ratio
CATAAGGGGC	1.02
TTTCTACTTG	1.05
TTCCACACGG	1.05
GAAGCATTGG	1.72
TTCATGTGAG	0.995
TGTTGACAAG	0.994
TGAGCTGTCC	1.07
GGGCGCAATG	3.83
CAAACGGTAT	1.04
TTGAGCATGA	1.04
CGTGCGTACT	1.03
TACGGATGA	1.05
TTTGCGCTCC	1.02
CTGTAAGTAG	1.05
GATTTATATG	1
GCCTATGACC	0.999
ACGGTTAAAT	0.999
GACCTTTCGC	1.58
GATAAACGGA	0.99
TCTTTACTGG	1.05
GACGGGGTAA	0.959
GCGAGCACGC	1.02
CATCTAACGG	1.05
ACTGGCTCTG	1
AAACTGCTG	1.03
GTGTTATTTC	0.921

Sequence	switch fluorescence ratio
ACGCGGCTTT	0.998
ACAAACCCGC	1.14
CAATATAACC	0.962
CTCCGAACCT	1.94
TGAGCTACTC	1.25
TTCTGAGGTC	0.993
GCATTCATAG	1.01
GATTATGGGT	1.02
TGAAGGGTCT	0.969
GCCTATCCGA	1.17
TATGAGCTTT	1.03
AGTAAGTAG	1.02
TTAGGGAACC	1.01
ATTATTTTTA	1.06
TTTGATAC	1.07
TAGCGTATGC	0.896
GATCAATTAT	1.09
GGTGGAGCTT	0.964
CTGTCATCA	1.03
